# Inconclusive means that the source gave no clear call. Such entries were picked first, then a sample of the others. Potencies of inconclusive entries are left out as doubtful fits. Activity calls are given as the source filed them. The call rests on the fitted dose curve; in most records, active means well fitted inhibition curve with a large enough effect; inconclusive means small, poorly fitted or top-dose-only effect; inactive means no such curve, though single readings can be large or run the other way.
# Test system: Zika virus NS2B-NS3 protease (linked construct)
# Assay: Primary screen NINDS Rhodamine qHTS for Zika virus inhibitors (AID 1347160); further: nearly all actives have a fitted effect of over 55% in size
# Conditions: purified NS2B-NS3 protease, Rhodamine110 substrate fluorescence; series mostly up to 112 µM
# Description: Avindra Nath, Ph.D., National Institute of Neurological Disorders and Stroke (NINDS), Bethesda, MD
# Radhakrishnan Padmanabhan, Ph.D., Georgetown University (GU), Washington D.C.
# Zika Virus causes congenital defects, including microcephaly and is associated with Guillain-Barre syndrome, eningoencephalitis and myelitis in infected adult. […] Using a target-based approach, we hope to establish a screening paradigm to uncover novel, cell-active NS2B-NS3 protease (Zika Virus) specific inhibitors from NCATS' collection of small molecules using qHTS.
# Four assay panel was created to identify potential Zika Virus inhibitors. Namely, (1) GU unlinked NS2B-NS3 AMC tagged protease qHTS, (2) GU unlinked NS2B-NS3 Rhodamine tagged protease qHTS, (3) NINDS linked NS2B-NS3 AMC tagged protease qHTS, (4) NINDS linked NS2B-NS3 Rhodamine tagged protease qHTS. Active compounds were re-acquired and re-screened to confirm inhibition. Inhibitors were further screened against various confirmatory and counterscreens in dose response format.
# Early Translation Branch (ETB)
# National Center for Advancing Translational Sciences (NCATS), Rockville, MD
# National Institute of Health (NIH), Bethesda, Maryland
# For the linked assay, Nath lab (NINDS) provided the purified linked NS2B-NS3 protease which is consists of hydrophilic domain of NS2B linked to the NS3 protease domain by a flexible (-[…]-) linker. Control compound aprotinin is obtained from Thermo Scientific (#78432; Waltham, Massachusetts). Rhodamine110 substrate ([N-Cbz]-Nle-Lys-Arg-Arg-Rhod110-Arg-Arg-Lys-Nle-[N-Cbz]) was purchased from either Genscript or Bachem.
# 1536-well Protease (Rhodamine110 Substrate) Assay:
# Briefly, 3 microL of enzyme (25 nM final concentration), in assay buffer (10 mM Tris-HCl pH 8.0 with 0.01% Tween 20) were dispensed into a 1,536-well solid-bottom black plate (Greiner Bio One, Monroe, NC). Twenty-three nL of compounds (final concentration range 7.28 nM to 114 microM) or control Aprotinin (final concentration range 3.47 nM to 114 microM) were transferred via Wako Pin-tool (Wako Automation, Richmond, VA). Samples were incubated (room temperature, protected from light) for 15 minutes followed by a 1 microL Rhodamine110 substrate addition (1.5 microM final concentration). Plates were then immediately read on a ViewLux High-throughput CCD imager (PerkinElmer, Waltham, MA) equipped with FITC fluorescence optics (480(20) nm excitation, 540(25) nm emission), then incubated (room temperature, protected from light) for 15 minutes (~15% conversion). The change in fluorescence intensity over the 15-minute reaction period was normalized against no-inhibitor and no-enzyme controls and the resulting percent inhibition data were fitted to a 4-parameter Hill equation. Aprotinin was used as intraplate control.
# On the % scale 0 is the no-effect control and ±100 the full control effect; potency means the concentration at half of the fitted maximal effect; tags describe the fitted curve by direction and shape.
SMILES,Potency,"activity change, negative = inhibition"
O[C@H]1c2ccccc2-c2c3c(cc4c2[C@@H]1NCC4)OCO3,active: 49.3 µM,–
C[C@]12CC[C@]3(C1)[C@H](CC2=O)C[C@@H](OC(=O)c1ccccc1)[C@H]1[C@](C)(C(=O)O)CCC[C@@]13C,active: 19.6 µM,–
CC(=O)OCC1(O)CCC2C(COC3OC(CO)C(O)C(O)C3OC(=O)/C=C/c3ccc(O)cc3)=COC(OC(=O)CC(C)C)C21 (stereo not given),"inconclusive [inhibitor, single point]",–
CC(C)=CCC[C@]12c3cc4c(cc3CC[C@@]1(C)[C@H](C)CC[C@@H]2O)[nH]c1ccccc14,active: 24.7 µM,–
O=C1c2c(O)cc(O)cc2OC(c2ccc(O)cc2)C1O (stereo not given),"inconclusive [inhibitor, partial curve]",–
C=C(NC(=O)c1csc(-c2nc3c(cc2O)-c2nc(cs2)C(=O)NC(C(C)O)C(=O)N/C(=C(\C)O)c2nc(cs2)C(=O)NC2c4nc(cs4)C(=O)NC(COC(=O)c4c5c6c(cccc6n4O)COC(=O)[C@@H](OC4C[C@](C)(O)[C@H](N(C)C)[C@H](C)O4)C2OC5)c2nc-3cs2)n1)C(N)=O (stereo not given in full),active: 4.4 µM,–
CN1CC[C@@]2([C@@]34CCN(C)[C@@H]3Nc3ccccc34)c3ccccc3N[C@@H]12,"inconclusive [inhibitor, partial curve, poor fit]",–
C=C1C(=O)C[C@H]2C[C@@H]1[C@]2(C)CCC=C(C)C,active: 17.5 µM,–
C=C1C[C@H]2O[C@@H]3[C@@H]4[C@H](CC[C@@](C)(O)[C@@H]42)[C@H](C)COC3(C)[C@@H](OC(=O)CCCCCCC)CC1=O (stereo not given in full),"inconclusive [inhibitor, partial curve]",–
C[C@@]12CCC[C@@](C)(C(=O)O)[C@H]1CC[C@]13C[C@H]4C[C@H](O[C@@]4(C)C1)[C@H]32,active: 3.92 µM,–
O=C1c2c(O)cc(O)cc2O[C@@H](c2ccc(O)cc2)[C@@H]1c1c(O)cc(O)c2c(=O)cc(-c3ccc(O)c(O)c3)oc12,active: 3.92 µM,–
C=CC(C)(C)C(=O)[C@@H](C)[C@@H]1CC[C@@](C)(C=C)O1,"inconclusive [inhibitor, partial curve, poor fit]",–
COc1c(O)cc2oc(-c3ccccc3)cc(=O)c2c1O,active: 44 µM,–
C=C1C(O)CC2C(C(=O)O)=COC(O[C@@H]3O[C@H](COC(=O)c4ccc(O)cc4)[C@@H](O)[C@H](O)[C@H]3O)C12 (stereo not given in full),"inconclusive [inhibitor, single point]",–
C=C[C@@]1(C)CC[C@@H]([C@H](C)C(=O)/C=C/C(C)(C)O)O1,active: 55.3 µM,–
CO[C@@H]1[C@H](O)[C@@H](C)O[C@@H](OC[C@@H]2C(C)OC(=O)/C=C/[C@H](C)C(O[C@@H]3O[C@H](C)CC4(OC(=O)O[C@@H]4C)C3O)[C@@H](C)CC(C)C(=O)/C=C/[C@H]3OC23)[C@@H]1OC (stereo not given in full),"inconclusive [inhibitor, partial curve]",–
C/C=C(/CO)C(=O)O[C@@H]1[C@H](O)[C@@H](C(=O)OC)O[C@@H]2C[C@H]3OC(n4cnc5c(N)ncnc54)[C@H](OC)[C@H]3O[C@@]12O (stereo not given in full),"inconclusive [inhibitor, single point]",–
COc1cc(C2C3=C(Cc4cc5c(cc42)OCO5)C(=O)OC3)cc(OC)c1OC (stereo not given),"inconclusive [inhibitor, partial curve, poor fit]",–
C/C(=C\[C@H](C)C(=O)C[C@H](O)CC1CC(=O)NC(=O)C1)[C@@H]1OC(=O)CCCC/C=C/[C@@H](O)C[C@@H]1C,"inconclusive [inhibitor, partial curve]",–
CC(C)=CCCC(C)(O)[C@H]1CC=C(C)C(O)C1 (stereo not given in full),"inconclusive [inhibitor, full curve]",–

SMILES,Potency,"activity change, negative = inhibition"
C[C@@H]1O[C@@H](O[C@H]2[C@H](OC(=O)[C@]34CCC(C)(C)C[C@H]3C3=CCC5[C@@]6(C)C[C@H](O)[C@H](O[C@@H]7O[C@H](CO)[C@@H](O[C@H]8OC[C@](O)(CO)[C@H]8O)[C@H](O)[C@H]7O)[C@@](C)(CO)C6[C@H](O)C[C@@]5(C)[C@]3(C)C[C@H]4O)OC[C@H](O)[C@@H]2O)[C@H](O)[C@H](O)[C@H]1O[C@@H]1OC[C@@H](O)[C@H](O[C@@H]2OC[C@](O)(CO)[C@H]2O)[C@H]1O (stereo not given in full),–,inactive: 33.3% [at 10.7 µM]
CCCCCCCCCCCCCCCC(=O)OC/C=C(\C)CCCC(C)CC(C)C(C)C (stereo not given),active: 55.3 µM,–
COc1cc2c(cc1OC)[C@@H](c1ccc3c(c1)OCO3)C(C)C(C)C2=O (stereo not given in full),inactive,–
COc1ccc(/C=C2\COc3cc(O)ccc3C2=O)cc1,active: 22 µM,–
O=C(O)CC/C=C\C[C@H]1CO[C@@H](c2ccccc2Cl)O[C@H]1c1ccccc1O,"inconclusive [inhibitor, partial curve]",–
COc1cc2c(cc1OC)[C@@H](c1ccc3c(c1)OCO3)C(C)[C@@H](C)C2=O (stereo not given in full),"inconclusive [inhibitor, partial curve]",–
CC(=O)O[C@H]1c2ccccc2-c2c3c(cc4c2[C@@H]1N(C(C)=O)CC4)OCO3,active: 55.3 µM,–
CC1=CC2=C[C@H](C)C[C@@]23OC(=C(C)C3=O)CC(C)(C)/C=C/C1=O,active: 55.3 µM,–
COc1c(O)cc(O)c2c(=O)cc(-c3ccccc3)oc12,"inconclusive [inhibitor, partial curve, poor fit]",–
COC(=O)[C@@]12Oc3cccc(O)c3C(O)=C1C(=O)C[C@H](C)[C@H]2O,"inconclusive [inhibitor, partial curve]",–
C=C1C[C@@]23C=CC(=O)[C@@](C)(CCC(=O)Nc4c(O)ccc(C(=O)O)c4O)C2C[C@@H]1CC3O (stereo not given in full),active: 49.3 µM,–
CCCCCC[C@H](CCCCC[C@@H](O)C(N)=O)OC(=O)[C@@H]1CC=CN1C(=O)c1ccccc1O,active: 62.1 µM,–
CC(=O)NC[C@@H]1O[C@H](CC/C=C(C)/C(C)=C/C=O)[C@H](C)C[C@H]1O,active: 49.3 µM,–
O=c1cc(-c2ccc(O)c(O[C@@H]3O[C@H](CO)[C@@H](O)[C@H](O)[C@H]3O)c2)oc2cc(O[C@@H]3O[C@H](CO)[C@@H](O)[C@H](O)[C@H]3O)cc(O)c12,active: 27.7 µM,–
CC1(C)CC[C@]2(CO)CC[C@]3(C)C(=CCC4[C@@]5(C)CC[C@H](O)C(C)(C)C5CC[C@]43C)C2C1 (stereo not given in full),"inconclusive [inhibitor, partial curve]",–
CC1(C(=O)O)CCCC2(C)C3CC4C5CC3(CCC12)CC45C (stereo not given),"inconclusive [inhibitor, single point]",–
C[C@@H]1C(=O)[C@]23CC[C@H]1C[C@]21O[C@H]2C(C)(C)C=CC(=O)[C@@]23COC1=O,active: 62.1 µM,–
COC(=O)[C@@]1(C)CCC[C@]2(C)c3cc(OC)ccc3CC[C@@H]12,"inconclusive [inhibitor, partial curve, poor fit]",–
COc1cc2ccc(=O)oc2c(O)c1O[C@@H]1O[C@H](CO)[C@@H](O)[C@H](O)[C@H]1O,"inconclusive [inhibitor, partial curve]",–
CC(C)C[C@@H]1c2c(O)c(C=O)c(O)c(C=O)c2O[C@]2(C)C=C[C@@H](C(C)C)C[C@H]12,active: 13.9 µM,–
